Measured values published in PubChem BioAssay AID504832 (National Center for Advancing Translational Sciences (NCATS), 2011).
Out of some 310,000 compounds screened, about 18,000 (5.8%) were called active. Inconclusive means that the source gave no clear call. Such entries were picked first, then a sample of the others. The call rests on the fitted dose curve; in most records, active means well fitted inhibition curve with a large enough effect; inconclusive means small, poorly fitted or top-dose-only effect, or another doubt; inactive means no such curve, though single readings can be large or run the other way. Potencies of inconclusive entries are left out as doubtful fits.
On the % scale 0 is the no-effect control and ±100 the full control effect; potency means the concentration at half of the fitted maximal effect; tags describe the fitted curve by direction and shape.

Experiment: Primary qHTS for delayed death inhibitors of the malarial parasite plastid, 48 hour incubation
Settings: P. falciparum luciferase growth in erythrocytes; series mostly up to 28.7 µM; activity change, negative = inhibition: at the top concentration
How it was run: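 Firefly luciferase activity from engineered P. falciparum reports growth; inhibitors lower the luminescent signal. Cultures contained 2% hematocrit erythrocytes at 0.1% final parasitemia.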
In the case of NC(=O)c1ccsc1NC(=O)COC(=O)c1ccccc1F, the Potency is reported as inconclusive [inhibitor, partial curve, poor fit]. In the case of O=S(=O)(c1ccc2ccccc2c1)N1CCCCCC1, the Potency is reported as inconclusive [inhibitor, partial curve, poor fit]. For c1ccc(CN(Cc2ccccc2)c2ncnc3c2nnn3Cc2ccccc2)cc1, the Potency was inconclusive [inhibitor, partial curve, poor fit]. In the case of CC(C)CN(CC(C)C)S(=O)(=O)N1CCC(C(=O)NCCc2ccc(Cl)cc2)CC1, the Potency is reported as inconclusive [inhibitor, partial curve]. For Cc1nc2cc(NC(=O)N3c4ccccc4CC3C)ccc2n1C (centres undefined), the “activity change, negative = inhibition” value was inactive: 154%. With O=C(NC(=S)NCC1CCCO1)c1ccc(Br)o1 (centres undefined) the “activity change, negative = inhibition” value was inactive: 76%. In the case of c1ccc2c(c1)[nH]c1nc(SCCN3CCOCC3)nnc12, the Potency is reported as inconclusive [inhibitor, single point]. With Nc1nc(NC(=O)Cc2ccccc2)nn1-c1ccccc1 the “activity change, negative = inhibition” value was inactive: 16.3%. For N#C/C(=C\c1ccccc1[N+](=O)[O-])C(=O)NC1CCCCC1, the Potency was inconclusive [inhibitor, single point]. In the case of CCc1c(C)nc(SCC(=O)Nc2ccc3c(c2)OCCO3)[nH]c1=O, the “activity change, negative = inhibition” value is reported as inactive: 2.99%. In the case of COc1cccc(CC2(CO)CCN(S(=O)(=O)c3ccc(OC)cc3OC)CC2)c1, the Potency is reported as inconclusive [inhibitor, single point]. In the case of COc1ccc(N=c2oc3ccc(OC)cc3cc2-c2nc3ccccc3[nH]2)cc1, the “activity change, negative = inhibition” value is reported as inactive: 17.3%. With O=C(CCc1ccc(S(=O)(=O)NCCc2ccccc2)cc1)Nc1ccc2c(c1)OCO2 the Potency was inconclusive [inhibitor, single point]. In the case of CCOC(=O)c1sc(-c2cccc(C(F)(F)F)c2)nc1O, the Potency is reported as inconclusive [inhibitor, partial curve, poor fit]. In the case of CCc1ccc2oc(C(=O)NCC(c3ccc(OC)cc3)N3CCCCC3)c(C)c2c1 (centres undefined), the Potency is reported as inconclusive [inhibitor, partial curve]. For Cc1cccc(-c2cc(C(=O)NCc3ccccn3)c3ccccc3n2)c1, the Potency was inconclusive [inhibitor, single point]. With O=C(CN1CCSC1=NCc1ccccc1)c1ccc(Cl)c(Cl)c1 the Potency was inconclusive [inhibitor, single point]. With COc1ccc(Nc2nc(C(=O)NCc3ccco3)cs2)cc1 the Potency was inconclusive [inhibitor, partial curve, poor fit]. In the case of CN(C(=O)CSc1nnc(-c2ccc(C(C)(C)C)cc2)n1C)C1CCS(=O)(=O)C1 (centres undefined), the “activity change, negative = inhibition” value is reported as inactive: -24.5%. With COc1cccc(NCc2cc3c(C(C)(C)C)nn(-c4ccccc4)c3[nH]c2=O)c1 the Potency was inconclusive [inhibitor, single point]. In the case of CC(NC(=O)/C(C#N)=C/c1cccs1)c1ccccc1 (centres undefined), the “activity change, negative = inhibition” value is reported as inactive: 2.68%. In the case of COc1ccc(NC(=O)CSc2nc3ccccc3c(=O)n2CCCN2CCOCC2)c(OC)c1, the Potency is reported as inconclusive [inhibitor, partial curve]. In the case of CN(CC(=O)Nc1ccccc1Cl)C(=O)c1ccc(N2C(=O)CCC2=O)cc1, the Potency is reported as inconclusive [inhibitor, single point]. For COC(=O)C1=C(C)NC(=S)NC1c1ccc(-c2ccccc2C(=O)OC)o1 (centres undefined), the Potency was inconclusive [inhibitor, partial curve]. For COc1cc([N+](=O)[O-])ccc1-c1ccc(/C=N/NC(=O)c2ccccc2O)o1, the Potency was active: 2.62 µM. For CCCCc1ccc(NC(=S)NCc2ccccc2OC)cc1, the Potency was inconclusive [inhibitor, single point]. With CC(C)c1cccc(C(C)C)c1NC(=O)CN1CCCC1 the Potency was inconclusive [inhibitor, partial curve, poor fit]. In the case of Brc1c(C[n+]2ccccc2)nc2ccccn12, the Potency is reported as inconclusive [inhibitor, partial curve]. In the case of CN1CCC(N(C)C(=O)c2ccc(Cl)c(S(=O)(=O)N3CCOCC3)c2)CC1, the “activity change, negative = inhibition” value is reported as inactive: 15.2%. In the case of O=C(CCc1ccccc1)NNC(=O)COc1ccccc1Cl, the Potency is reported as inconclusive [inhibitor, full curve, poor fit]. With COC(CNC(=O)c1cnn2c(C)c(Cc3ccccc3)c(C)nc12)OC the Potency was inconclusive [inhibitor, partial curve, poor fit]. For CCC(C)NC(=O)[C@H]1N2C(=O)c3ccccc3C2SC1(C)C (some centres undefined), the “activity change, negative = inhibition” value was inactive: -3.27%. For CCn1c(=O)cc(OCC(=O)Nc2nc(C)cs2)c2ccccc21, the “activity change, negative = inhibition” value was inactive: 6.13%. In the case of Cc1ccc(Cn2nnc3c(=O)n(CC(=O)N4CCCc5ccccc54)cnc32)cc1, the Potency is reported as inconclusive [inhibitor, partial curve]. In the case of Cc1ccccc1CNC(=O)C(=O)NCCC1CCCCN1S(=O)(=O)c1ccccc1 (centres undefined), the Potency is reported as active: 13.1 µM. With O=[N+]([O-])c1ccc(N2CCNCC2)cc1Sc1ccccn1 the Potency was inconclusive [inhibitor, partial curve]. With CCCc1ccc(S(=O)(=O)N(C)S(=O)(=O)c2ccc(F)cc2)cc1 the Potency was inconclusive [inhibitor, partial curve]. In the case of O=C(CSc1nccc(=O)[nH]1)NCc1ccc2c(c1)OCO2, the “activity change, negative = inhibition” value is reported as inactive: 38.2%. For Cc1ccc2cc(CCNC(=O)c3ccc4c(c3)OCO4)c(=O)[nH]c2c1C, the Potency was inconclusive [inhibitor, partial curve, poor fit]. In the case of NC(CS)C(=O)O (centres undefined), the Potency is reported as active: 4.26 µM. With Cc1ccc(C(=O)Nc2cccnc2)cc1S(=O)(=O)N1CCCCC1 the Potency was inconclusive [inhibitor, partial curve]. In the case of COc1ccccc1-c1nnc2n1N=C(C)CS2, the Potency is reported as inconclusive [inhibitor, full curve]. With COc1ccc(S(=O)(=O)N2CCCC2CNC(=O)C(=O)NCc2ccccn2)cc1 (centres undefined) the Potency was inconclusive [inhibitor, full curve, poor fit]. For CCC(=O)Nc1ccc(C(=O)NNC(=O)c2ccc([N+](=O)[O-])cc2)cc1, the Potency was inconclusive [inhibitor, partial curve, poor fit]. For CCN(CC)CCCn1c2c(c(SCC(=O)Nc3cccc4ccccc34)nc1=O)CCC2, the Potency was inconclusive [inhibitor, single point]. For O=S(=O)(N/N=C/c1ccc(OC2CSC2)cc1)c1ccccc1, the “activity change, negative = inhibition” value was inactive: 28.7%. For OCCC1CN(Cc2ccc(F)cc2)CCN1CCc1ccccc1 (centres undefined), the Potency was inconclusive [inhibitor, single point]. For N#Cc1ccc(OCC(=O)Nc2nc(-c3ccncc3)cs2)cc1, the Potency was inconclusive [inhibitor, full curve]. For O=C(c1ccccc1)c1sc(N2CCOCC2)nc1-c1ccccc1, the Potency was inconclusive [inhibitor, partial curve, poor fit]. With CCn1c(/C=C2/C(=O)N(C)c3ccccc32)nc2ccccc2c1=O the Potency was inconclusive [inhibitor, partial curve, poor fit]. With OCCN(Cc1ccccc1)C(=S)Nc1ccc(Cl)cc1Cl the “activity change, negative = inhibition” value was inactive: 68%. For O=C(C1=C[C@H](c2csc3ccccc23)C[C@H](OCc2ccc(CO)cc2)O1)N1CCN(Cc2ccccc2)CC1, the Potency was inconclusive [inhibitor, full curve]. For CCCCNC(=S)N(C)N=C1CCC(c2ccccc2)CC1 (centres undefined), the Potency was inconclusive [inhibitor, single point]. For O=C(NN1C(=O)c2ccc(-c3ccc4c(c3)C(=O)N(NC(=O)c3cccnc3)C4=O)cc2C1=O)c1cccnc1, the “activity change, negative = inhibition” value was inactive: 39.5%. For Cc1ccc(-n2nnnc2SCc2nnc(-c3ccccc3Br)o2)c(C)c1, the Potency was inconclusive [inhibitor, single point]. For C=CCn1c(Cc2ccc(OC)cc2)nnc1SCC(=O)c1cccc([N+](=O)[O-])c1, the Potency was inconclusive [inhibitor, partial curve, poor fit]. In the case of COC(=O)CN(C#N)c1nc(NCc2ccccc2)nc(OC)n1, the Potency is reported as active: 9.28 µM. For OC(Cc1ccncc1)(c1ccccc1)c1ccccc1, the Potency was inconclusive [inhibitor, full curve]. In the case of C/C=C1\C(OC2OC(CO)C(O)C(O)C2O)OC=C(C(=O)OC)C1CC(=O)OCC1C(C)C(OC(=O)CC2C(C(=O)OC)=COC(OC3OC(CO)C(O)C(O)C3O)/C2=C\C)CC1C(CO)CO (centres undefined), the “activity change, negative = inhibition” value is reported as inactive: 44.5%. For COc1ccc2[nH]c3c(c2c1)CCNC3c1ccc([N+](=O)[O-])o1 (centres undefined), the Potency was active: 13.1 µM. With Cc1ccc(NC(=S)N(CCCN2CCCC2)Cc2cccn2Cc2ccc(Cl)cc2)cc1C the Potency was inconclusive [inhibitor, partial curve, poor fit]. For CCN(CC)c1ccc(C(=O)OCC(=O)N(C)Cc2ccccc2)cc1, the Potency was inconclusive [inhibitor, partial curve, poor fit]. For CC(=O)c1cccc(N(CC(=O)N2CCOCC2)S(C)(=O)=O)c1, the “activity change, negative = inhibition” value was inactive: 2.05%. With O=C(COC(=O)C1=COCCO1)Nc1ncc(C(F)(F)F)cc1Cl the “activity change, negative = inhibition” value was inactive: 9.08%. With Cc1cc(C(=O)N/N=C/c2ccc3ccccc3c2)n[nH]1 the “activity change, negative = inhibition” value was inactive: 13.7%. In the case of CCOC(=O)c1c(C)[nH]c(C(=O)Nc2ccc3c(c2)OCO3)c1C, the “activity change, negative = inhibition” value is reported as inactive: 103%. For Cc1ccc(S(=O)(=O)N2CCN(CC(=O)Nc3ccnn3C3CCCC3)CC2)cc1, the Potency was inconclusive [inhibitor, single point]. For COc1ccc2c(c1)[C@@]13CCC=C[C@H]1[C@@H](C2)NCC3, the Potency was active: 11.7 µM. For COCCCNC(=O)COc1ccc(-c2nccc(-c3ccccn3)n2)cc1, the Potency was inconclusive [inhibitor, single point].
